# Test results: PubChem BioAssay AID485294 (National Center for Advancing Translational Sciences (NCATS), 2010)
# About 150 (0.041%) of roughly 370,000 compounds were called active. Inconclusive results, whose numbers are uncertain, are shown with a selection of clear calls. Calls follow the shape of the dose curve; as a rule, active = well fitted inhibition curve with a large enough effect; inconclusive = small, poorly fitted or top-dose-only effect; inactive = flat fitted curve, though single readings scatter. Potencies of inconclusive entries are left out as doubtful fits.
# Target: Beta-lactamase (Escherichia coli (strain K12)) (UniProt P00811)
# Sequence of UniProt P00811 (P00811 whole entry, looked up): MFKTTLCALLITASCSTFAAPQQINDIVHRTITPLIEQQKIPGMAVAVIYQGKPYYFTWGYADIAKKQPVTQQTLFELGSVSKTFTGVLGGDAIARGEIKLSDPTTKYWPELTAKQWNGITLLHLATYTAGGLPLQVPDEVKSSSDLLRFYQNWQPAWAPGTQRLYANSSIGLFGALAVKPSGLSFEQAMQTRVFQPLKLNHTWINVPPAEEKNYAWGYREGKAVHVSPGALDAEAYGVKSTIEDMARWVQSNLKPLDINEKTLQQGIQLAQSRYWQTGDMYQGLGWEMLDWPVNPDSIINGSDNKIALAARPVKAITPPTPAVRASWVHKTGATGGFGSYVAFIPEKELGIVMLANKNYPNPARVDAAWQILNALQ
# Experiment: qHTS Inhibitors of AmpC Beta-Lactamase (assay with detergent); also: nearly all actives have a fitted effect of over 25% in size;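 as to activity change, negative = inhibition: 0% = no-compound wells and -100% = no-enzyme wells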
# Conditions: AmpC hydrolysis of nitrocefin, absorbance 480 nm, 0.01% Triton; activity change, negative = inhibition: at 114 µM (top of the series)
# Method in brief: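 AmpC (5.3 nM in the dispensed reagent) in 20 mM phosphate pH 7.0 with 0.01% (detergent screen) or 0.0001% Triton X-100 was preincubated with compounds for 15 min at room temperature. Nitrocefin was then added from an 800 uM solution, and hydrolysis was followed at 480 nm.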
# Potency is read from the fitted curve at half-maximal effect; tags tell the direction and shape of the fitted curve.
SMILES,Potency,"activity change, negative = inhibition"
COC(=O)c1onc(-c2c(C)cc(C)cc2C)c1C(=O)OC,"inconclusive [inhibitor, full curve, poor fit]",–
N#CC1=C(N)N2C(=C(C#N)C1c1ccccc1)Sc1ccccc12 (stereo unspecified),"inconclusive [inhibitor, full curve, poor fit]",–
CC1CCc2cc(F)ccc2N1C(=O)c1cccnc1 (stereo unspecified),"inconclusive [inhibitor, partial curve, poor fit]",–
CCc1cccc(CC)c1NC(=O)c1ccccc1CCc1ccccc1,"inconclusive [inhibitor, partial curve, poor fit]",–
COc1cc(/C=C2\SC(N)=NC2=O)cc(Br)c1O,"inconclusive [inhibitor, full curve, poor fit]",–
Cc1ccccc1-c1nn[nH]n1,"inconclusive [inhibitor, full curve, poor fit]",–
O=C(COC(=O)CNC(=O)c1ccccc1)Nc1ccc(S(=O)(=O)N2CCOCC2)cc1,"inconclusive [inhibitor, partial curve, poor fit]",–
S=C(NCCc1ccccc1)NCC1CCCO1 (stereo unspecified),"inconclusive [inhibitor, full curve, poor fit]",–
Cc1nn(-c2ncc(C(F)(F)F)cc2Cl)c(=O)n1-c1c(F)cccc1F,"inconclusive [inhibitor, full curve, poor fit]",–
Cc1cc(C(=O)COC(=O)c2ccc[nH]c2=O)c(C)n1-c1ccccc1,"inconclusive [inhibitor, partial curve]",–
Cc1nc(SCc2ccc(Cl)cc2)ncc1C(=O)O,–,inactive: -6.32%
CC(C)c1ccc(NC(=O)c2sccc2-n2cccc2)cc1,–,inactive: 2.36%
CCOc1cc(/C=C2\CN(CC)C/C(=C\c3ccc(O)c(OCC)c3)C2=O)ccc1O,"inconclusive [inhibitor, partial curve]",–
CC(=O)c1cccc(NC(=O)CN2C(=O)NC3(CCCCCCC3)C2=O)c1,"inconclusive [inhibitor, full curve, poor fit]",–
O=C(NCc1cccnc1)C1CCCN(Cc2cnn(-c3ccccc3)c2-n2cccc2)C1 (stereo unspecified),"inconclusive [inhibitor, full curve, poor fit]",–
CCOc1ccc(-c2nc3ccccc3c(=O)o2)cc1,inactive,–
COc1ccccc1NC(=O)Cn1cc(C(=O)C(=O)N2CCOCC2)c2ccccc21,–,inactive: -7.46%
CCOC(=O)c1cccc(NC(=O)[C@H](CSCc2ccccc2)N2Cc3ccccc3C2=O)c1,–,inactive: -6.99%
Cc1ccc(Sc2cc(N3CCOCC3)nc(-c3ccccc3)n2)cc1,"inconclusive [inhibitor, partial curve]",–
Cc1cc(C)c(C#N)c(SCC(=O)N(CCC#N)c2ccc3c(c2)OCCO3)n1,"inconclusive [inhibitor, partial curve, poor fit]",–
CCOC(=O)c1c(C)[nH]c(C(=O)OCC(=O)Nc2ccc(OCC)cc2)c1C,–,inactive: -1.71%
Cc1cn2c(=O)cc(COc3ccc(NC(=O)COc4ccccc4)cc3)nc2s1,–,inactive: -8.59%

SMILES,Potency,"activity change, negative = inhibition"
CC(C)C1OC(c2cccc(NC(=O)c3cccs3)c2)OCC1(C)C (stereo unspecified),–,inactive: 5.26%
CCOC(=O)N1CCC(N2Cc3cccc(C(=O)N4CC(C)CC(C)C4)c3C2=O)CC1 (stereo unspecified),"inconclusive [inhibitor, full curve, poor fit]",–
NS(=O)(=O)c1ccc(CNC(=O)c2ccc3ccccc3n2)cc1,"inconclusive [inhibitor, partial curve, poor fit]",–
O=C(Nc1nc2c(Br)cccc2s1)C1CC1,"inconclusive [inhibitor, full curve, poor fit]",–
COc1cccc(C(C(=O)NC(C)(C)C)N(CCc2ccccc2)C(=O)CCC(=O)Nc2cc(C)on2)c1OC (stereo unspecified),"inconclusive [inhibitor, full curve, poor fit]",–
Cc1ccc(S(=O)(=O)/N=C2\C=C(Nc3cccc(C(=O)O)c3)C(=O)c3ccccc32)cc1,–,inactive: -8.7%
CCN(CC)S(=O)(=O)c1ccc2[nH]c(=O)cc(C(=O)Nc3ccc(C)c(S(=O)(=O)N(CC)CC)c3)c2c1,"inconclusive [inhibitor, full curve, poor fit]",–
Cc1ccccc1NC(=O)CCN1C(=O)c2ccccc2Sc2ncccc21,"inconclusive [inhibitor, single point]",–
O=C(COc1ccc(Br)cc1)Nc1ccncc1,"inconclusive [inhibitor, full curve, poor fit]",–
Cc1noc(C)c1CSc1nc2ccccc2nc1NS(=O)(=O)c1ccc(Cl)cc1,"inconclusive [inhibitor, full curve, poor fit]",–
Cc1ccoc1C(=O)Nc1cccc2ccccc12,"inconclusive [inhibitor, full curve, poor fit]",–
Cc1ccc(C)c(NC(=O)CSc2nc3c(c(=O)n2C)SC(C)C3)c1 (stereo unspecified),"inconclusive [inhibitor, full curve]",–
N#CCSCC(=O)Nc1ccc(F)cc1,"inconclusive [inhibitor, partial curve]",–
CCOc1ccc2nc(NC(=O)CSc3nnc(-c4ccncc4)n3CC3CCCO3)sc2c1 (stereo unspecified),"inconclusive [inhibitor, full curve, poor fit]",–
CC(C)Cc1cc(C(=O)N2N=C(C(F)F)CC2(O)C(F)F)c2ccccc2n1 (stereo unspecified),–,inactive: -2.49%
N#Cc1c(-c2ccc(Cl)cc2)c2c([nH]c1=S)CCCC2,"inconclusive [inhibitor, partial curve]",–
O=C1NC2(CCCc3ccccc32)C(=O)N1Cc1nnc(-c2ccccc2Br)o1 (stereo unspecified),"inconclusive [inhibitor, full curve, poor fit]",–
O=C(CSc1ncccn1)NC(=O)c1ccccc1,–,inactive: 2.58%
COc1ccc(C2C(=O)N(C3CCCCC3)CC(=O)N2C2CCCC2)cc1 (stereo unspecified),"inconclusive [inhibitor, full curve]",–
Cc1c(C)c2c(OCC(=O)N[C@@H](Cc3ccccc3)C(=O)O)cc3c(c2oc1=O)CCC(C)(C)O3,"inconclusive [inhibitor, full curve, poor fit]",–
CCOC(=O)Nc1cccc(Cl)c1C,–,inactive: -9.31%
Cc1csc2ncc(C(=O)Nc3ccccc3F)c(=O)n12,"inconclusive [inhibitor, full curve, poor fit]",–

SMILES,Potency,"activity change, negative = inhibition"
Cc1cccc(CSC2=NN3CCCC(=O)N=C3S2)c1,–,inactive: -8.54%
Nc1nc(CCl)nc(Nc2ccc3ccccc3c2)n1,–,inactive: 0.958%
CCOc1ccc(S(=O)(=O)N(C)c2ccc(OCC(=O)NCc3ccco3)cc2)cc1,"inconclusive [inhibitor, full curve]",–
Cc1cc(C(=O)NCCC2=CCCCC2)c(C)o1,"inconclusive [inhibitor, full curve]",–
CCc1sc(C(=O)N2CCC3(CC2)OCCO3)cc1Br,"inconclusive [inhibitor, full curve, poor fit]",–
Cc1ccc(C)c(N2CCN(C(=O)c3cc(S(=O)(=O)N4CCOCC4)ccc3F)CC2)c1,"inconclusive [inhibitor, partial curve, poor fit]",–
CN(Cc1ccccc1)C1CCNCC1,"inconclusive [inhibitor, full curve, poor fit]",–
Clc1cccc(N2CCN(CCNc3nc4ccccc4n4cnnc34)CC2)c1,"inconclusive [inhibitor, full curve, poor fit]",–
O=c1c2c(-c3ccccc3)csc2nc2n1CCC2,"inconclusive [inhibitor, full curve, poor fit]",–
COc1ccc(NC(=O)c2ccc(OC(=S)N(C)c3ccc(OC)cc3)cc2)cc1,"inconclusive [inhibitor, full curve, poor fit]",–
O=C(CSc1ccc(Cl)cc1)OCC(=O)N1CCN(c2ccccc2)CC1,"inconclusive [inhibitor, full curve, poor fit]",–
CCOC(=O)C1CCN(C(=O)c2ccc(N3CCCC3=O)cc2)CC1,"inconclusive [inhibitor, full curve, poor fit]",–
O=C(CCl)N(c1ccccc1)C1CCS(=O)(=O)C1 (stereo unspecified),"inconclusive [inhibitor, full curve]",–
O=[N+]([O-])c1ccc(Oc2ccc(OCc3ccccc3)cc2)nc1,–,inactive: -5.4%
CC1CCCC(NC(=O)CCCn2c(=O)[nH]c3cc(Cl)ccc3c2=O)C1C (stereo unspecified),"inconclusive [inhibitor, full curve, poor fit]",–
CC1=CC2=NC(=O)CC(C)(C(=O)N(CC(=O)NC(C)(C)C)Cc3cccs3)N2C=C1 (stereo unspecified),"inconclusive [inhibitor, full curve]",–
Cc1ccc(NC(=S)Nc2ccc3cn[nH]c3c2)c(C)c1,–,inactive: 4.49%
CCOC(=O)C1CCN(C(=O)Nc2ccc(Cl)cc2Cl)CC1,"inconclusive [inhibitor, full curve, poor fit]",–
Cc1ccc(Nc2nnc(SCC(=O)Nc3cccc(S(=O)(=O)N4CCCCC4)c3)s2)cc1,–,inactive: 1.64%
CC(C(=O)Nc1ccc(Cl)cc1)N(C)Cc1cccs1 (stereo unspecified),"inconclusive [inhibitor, full curve, poor fit]",–
COC(=O)C(CC(=O)Nc1cc(C)ccc1C)Nc1ccccc1OC (stereo unspecified),"inconclusive [inhibitor, partial curve]",–
CC12CC(NC(=O)N1CCc1ccccc1)c1cc(Cl)ccc1O2 (stereo unspecified),"inconclusive [inhibitor, partial curve]",–
